Laboratory results published in PubChem BioAssay AID360 (National Center for Advancing Translational Sciences (NCATS), 2006).
Hit rate of the full screen: of about 48,000 compounds, about 550 (1.1%) were called active. Not shown: some 4% with an inconclusive outcome. Rule as the data show it: active = potency below about 15 µM; inconclusive = mostly about 16 µM to 33 µM; inactive = weaker than that. The list shows a part of the results.

biological target: Lysosomal acid glucosylceramidase (Homo sapiens) (UniProt P04062); assay: Glucocerebrosidase; conditions: purified enzyme, resorufin glucoside fluorescence (screen aimed at inhibitors), 20 min; series mostly up to 77 µM;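 also: the screen sought inhibitors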
Sequence of UniProt P04062 (P04062 whole entry, looked up): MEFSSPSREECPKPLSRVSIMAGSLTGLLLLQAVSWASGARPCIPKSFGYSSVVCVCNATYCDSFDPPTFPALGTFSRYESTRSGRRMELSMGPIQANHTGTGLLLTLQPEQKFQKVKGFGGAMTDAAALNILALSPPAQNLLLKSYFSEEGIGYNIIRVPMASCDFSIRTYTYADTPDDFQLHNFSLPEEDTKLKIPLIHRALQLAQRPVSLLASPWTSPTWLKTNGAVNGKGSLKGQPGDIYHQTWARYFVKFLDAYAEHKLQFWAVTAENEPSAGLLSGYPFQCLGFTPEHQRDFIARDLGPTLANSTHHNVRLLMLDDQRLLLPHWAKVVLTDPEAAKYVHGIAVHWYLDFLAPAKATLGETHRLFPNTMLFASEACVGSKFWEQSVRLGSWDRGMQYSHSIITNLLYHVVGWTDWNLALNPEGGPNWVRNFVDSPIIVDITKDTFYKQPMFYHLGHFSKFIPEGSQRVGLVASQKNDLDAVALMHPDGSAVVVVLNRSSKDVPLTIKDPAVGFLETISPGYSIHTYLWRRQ
Summary of the method: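 Normal human glucocerebrosidase (0.2 nM final) was assayed with resorufin β-D-glucopyranoside (30 uM final) in 50mM citric acid/KH2PO4, 10mM sodium taurocholate, 0.01% tween-20, pH 5.9. Compounds were titrated; fluorescence (Ex 548, Em 600) read after 20 min at RT.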
Potency is read from the fitted curve at half-maximal effect.

Potency, inactive:
CC(C)(O)C#Cc1ccc(C(=O)N2CCC(C(N)=O)(N3CCCCC3)CC2)cc1 > 76.9 µM, CCOC(=O)c1c(NC(=O)CSc2nc3cccnc3n2C)sc(C(C)=O)c1C > 76.9 µM, COc1cc2cc(CN(CCO)S(=O)(=O)c3ccccc3Cl)c(=O)[nH]c2cc1OC > 76.9 µM, CN(C1CCCCC1)S(=O)(=O)c1ccc(C(=O)O)cc1 > 76.9 µM, O=C(OCCCCN1C(=O)c2ccccc2C1=O)c1ccc(Br)o1 > 76.9 µM, COc1ccc(-c2nc(N)nc(C)c2Oc2ccccc2Br)c(O)c1 > 76.9 µM, O=C(CS(=O)(=O)c1ccccc1)Nc1nc(-c2ccccc2)cs1 > 76.9 µM, COc1ccccc1NC(=O)CC1C(=O)NCCN1C(=O)Nc1ccc(Cl)c(Cl)c1 (centres undefined) > 76.9 µM, O=C1C(Cl)=C(N2CCOCC2)C(=O)N1CCc1ccccc1 > 76.9 µM, N#CC(C(=O)NCc1ccccc1)c1nc2ccccc2nc1N1CCCC1 (centres undefined) > 76.9 µM, CCNC(=O)C1CC(=O)N(c2ccc(Br)cc2)C1 (centres undefined) > 76.9 µM, COc1ccc(Cn2c(=O)[nH]c3cc(C(=O)NCCCN4CCCC4=O)ccc3c2=O)cc1 > 76.9 µM, Cc1ccc(C)c(NC(=O)Cn2nnc(C(=O)Nc3c(C)cccc3C)c2N)c1 > 76.9 µM, O=C(CN1CCC(NC(=O)c2ccc(F)cc2)CC1)NCc1ccccc1F > 76.9 µM, COC(=O)C1Cc2c([nH]c3ccccc23)C(C)N1 (centres undefined) > 76.9 µM, COc1ccccc1Nc1nc2ccccc2[nH]1 > 76.9 µM, CCOc1ccc(NC(=O)Nc2ccc(N(C)C(C)=O)cc2)cc1 > 76.9 µM, COc1ccc(N=C(N(C)C)P(=O)(N(C)C)N(C)C)cc1 > 76.9 µM, O=C(CCn1c(=O)oc2ccccc21)N1CCOCC1 > 76.9 µM, CCN(CC(=O)NC1CCCCCC1)S(=O)(=O)c1ccccc1 > 76.9 µM, CCCOc1ccc(N2CC(C(=O)Nc3ccccn3)CC2=O)cc1 (centres undefined) > 76.9 µM, COc1ccc(-n2c(N)c(C(=O)NCC3CCCO3)sc2=S)cc1 (centres undefined) > 76.9 µM, O=C(COC(=O)c1ccco1)NCc1cccs1 > 76.9 µM, C=CCn1c(Br)nc2c1c(=O)n(C)c(=O)n2C > 76.9 µM, COc1ccc(-c2nc(-c3ccccc3OC)no2)cc1OC > 76.9 µM, CCOC(=O)c1c(-c2ccccc2)csc1NC(=O)CSc1nnnn1C > 76.9 µM, CCN(CC)S(=O)(=O)c1ccc(C(=O)OCC(=O)N2CCN(C(=O)c3ccco3)CC2)cc1 > 76.9 µM, CCOC(=O)N1CCN(S(=O)(=O)c2ccc(C)c(C)c2)CC1 > 76.9 µM, CC12CC(NC(=O)N1Cc1ccccc1)c1ccccc1O2 (centres undefined) > 76.9 µM, Cc1nnc(N(Cc2ccco2)C(=O)c2ccno2)s1 > 76.9 µM, COc1cccc(N(CC(=O)O)S(=O)(=O)c2ccccc2)c1 > 76.9 µM, COC(=O)c1ccc(/C(O)=C(\C#N)c2nc3ccccc3s2)cc1 > 76.9 µM, Cc1cc(C)cc(OCC(=O)N2CCCCCC2)c1 > 76.9 µM, Cc1[nH]nc(N=Cc2c(O)n(C)c(=O)n(C)c2=O)c1-c1ccccc1 > 76.9 µM, Brc1ccccc1-c1nnc(CSc2nnc3sc4ccccc4n23)o1 > 76.9 µM, CCOC(=O)c1cccc(NC(=O)CCNS(=O)(=O)c2ccc3c(c2)CCN3C(=O)CC)c1 > 76.9 µM, O=C(c1cc2ccccc2oc1=O)N(Cc1cccs1)C1CCS(=O)(=O)C1 (centres undefined) > 76.9 µM, Cc1ccc(C)c(Cn2nnc3c(=O)[nH]c(C4CCN(C(=O)c5cccs5)CC4)nc32)c1, CCC(OC(=O)c1ccco1)C(=O)NCc1ccc(C)cc1 (centres undefined) > 76.9 µM, CCCCn1c(SCC(=O)Nc2ccc3c(c2)OCO3)nc2c1c(=O)n(C)c(=O)n2C > 76.9 µM, O=C(CCS(=O)(=O)Cc1ccccc1)NCc1ccco1 > 76.9 µM, COCCNC(=O)CN(C(=O)CCC(=O)Nc1cc(C)on1)c1ccc(C)cc1C > 76.9 µM, CCOC(=O)n1ccc(C(=O)Nc2ccccc2F)n1 > 76.9 µM, COc1cccc(NC(=O)C(C#N)Cc2ccncc2)c1 (centres undefined) > 76.9 µM, CCCS(=O)(=O)N1CCCC(C(=O)NC(C)c2ccc3c(c2)OCCO3)C1 (centres undefined) > 76.9 µM, CCN(CC)S(=O)(=O)c1cc(C(=O)Nc2nncs2)c(Cl)cc1Cl > 76.9 µM, O=C(NCc1ccco1)c1cc(-c2ccc(Cl)cc2)on1 > 76.9 µM, CN(C)c1ccc(C(=S)NCc2ccco2)cc1 > 76.9 µM, COCCNC(=O)c1c[nH]c2ccc(S(=O)(=O)N3CCC4(CC3)OCCO4)cc2c1=O > 76.9 µM, O=C1C2C3C=CC(C3)C2C(=O)N1CCCCN1C(=O)C2C3C=CC(C3)C2C1=O (centres undefined) > 76.9 µM, COc1ccc(S(=O)(=O)NCCCCCC(=O)NCCCN2CCOCC2)cc1 > 76.9 µM, O=C1CN(c2ccccc2Cl)C(=O)CN1c1ccccc1Cl > 76.9 µM, Cc1cc(C)nc(N2CCCC(C(=O)NCCc3ccc(F)cc3)C2)n1 (centres undefined) > 76.9 µM, Cc1ccc(S(=O)(=O)N2CCN(C(=O)CCC(=O)OCC(=O)Nc3cccc(C#N)c3)CC2)cc1 > 76.9 µM, O=C(O)CCS(=O)(=O)Cc1ccccc1F > 76.9 µM, CN(C)C(CNC(=O)Nc1cccc(Cl)c1)c1cccnc1 (centres undefined) > 76.9 µM, COc1ccc(-c2cc3nc4c(c(=O)n3[nH]2)CCC4)cc1 > 76.9 µM, CCCCN(C)CCCNC(=O)CCn1nc(-c2ccccc2)ccc1=O > 76.9 µM, CC(C)Sc1nc(N)c2c3c(sc2n1)CN(C)CC3 > 76.9 µM, O=C(Cn1cnc2c(oc3ccccc32)c1=O)N1CCN(c2ccccc2)CC1 > 76.9 µM, CCn1ncc(NC(=O)Nc2cccc(C(F)(F)F)c2)c1C(N)=O > 76.9 µM, CN(Cc1ccccc1)C(=O)c1ccccc1NC(=O)c1ccco1 > 76.9 µM, O=C(Cn1cnc2ccccc21)NCc1ccccc1 > 76.9 µM, COC(=O)c1ccccc1NC(=O)Cn1c(=O)oc2ccc(Cl)cc21 > 76.9 µM, Cn1c(=O)cc(OCCCC(=O)NCc2ccco2)c2ccccc21 > 76.9 µM, COc1cccc(CNC(=O)CCCNS(=O)(=O)c2cccs2)c1 > 76.9 µM, COc1ccc2cc(CN(CCc3ccccc3)Cc3nnnn3CC3CCCO3)c(=O)[nH]c2c1 (centres undefined) > 76.9 µM, CNC(=O)NCC12CC3CC(CC(C3)C1)C2 > 76.9 µM, CN=C1SC(CC(=O)Nc2ccc(N3CCOCC3)cc2)C(=O)N1C (centres undefined) > 76.9 µM, Cc1ccc(-c2nn3c(C)nnc3s2)cc1NC(=O)CSc1ccc(Cl)cc1 > 76.9 µM, CC(C)(C)NC(=O)COC(=O)c1ccc(S(=O)(=O)N2CCCCCC2)cc1 > 76.9 µM, O=C(Nc1nc2ccc(S(=O)(=O)N3CCCCC3)cc2s1)C1CCCO1 (centres undefined) > 76.9 µM, CS(=O)(=O)N(CC(=O)N1CCN(c2ccccc2)CC1)C1CCCCC1 > 76.9 µM, Cc1ccc2c(c1)N(C(C)C(=O)NCCc1ccccc1)C(=O)CO2 (centres undefined) > 76.9 µM, Cc1ccccc1-c1nnn(CC(=O)c2ccc(S(=O)(=O)N3CCCC3)cc2)n1 > 76.9 µM, COCCNC(=O)CN1CCN(C(c2ccccc2)c2ccccc2)CC1 > 76.9 µM, c1ccc(OCCCn2nnc(-c3ccc(N4CCOCC4)cc3)n2)cc1 > 76.9 µM, O=C(Nc1ccccc1-c1ccccc1)C1CCCN(c2ncccn2)C1 (centres undefined) > 76.9 µM, COc1ccc2nc(N3CCCC(C(=O)NCCCN4CCN(C)CC4)C3)sc2c1 (centres undefined) > 76.9 µM, CCOc1ccc(OCC)c(NS(=O)(=O)c2ccc3c(c2)n(C)c(=O)c(=O)n3C)c1 > 76.9 µM, CCOC(=O)C1=C(C)NC2=C(C(=O)CCC2)C1c1ccsc1 (centres undefined) > 76.9 µM, Cc1ccc(S(=O)(=O)N2c3ccc(S(N)(=O)=O)cc3CC2C)cc1 (centres undefined) > 76.9 µM, COc1ccc(OC)c(-n2nnnc2SCC(=O)Nc2nc(C)c(C)s2)c1, COC(=O)C1CCN(C(=O)COc2cc3sc(C)nc3c3sccc23)CC1 > 76.9 µM, COc1ccccc1NC(=O)CSc1nnc(C)n1CCc1ccccc1 > 76.9 µM, O=C(NCCCNCCCNC(=O)c1ccccn1)c1ccccn1 > 76.9 µM, Cc1ccc(S(=O)(=O)N2CCCC2C(=O)Nc2nc3c(s2)CCCC3)cc1 (centres undefined) > 76.9 µM

Potency, active:
Cc1ccc(S(=O)(=O)Nc2ccc(C(=O)Nc3cc(C)on3)cc2)cc1 0.155 µM, CCc1nnc(NC(=O)c2ccc(S(=O)(=O)N3CCCCCC3)cc2)s1 1.43 µM
